{
  "source": "PubChem BioAssay AID1347417",
  "about": "(National Center for Advancing Translational Sciences (NCATS), 2020)",
  "note": "Hit rate of the full screen: of about 120,000 compounds, about 5,300 (4.4%) were called active. The inconclusive results got no clear call from the source; some entries with a clear call stand among them for comparison. Calls come from the whole dose curve; as a rule, active = well fitted inhibition curve with a large enough effect; inconclusive = small, poorly fitted or top-dose-only effect; inactive = no such curve, though single readings can be large or run the other way. A potency beside an inconclusive call is a rough fit, not a confirmed value. Potency is the fitted concentration of half-maximal effect; tags give direction and shape of the fitted curve.",
  "data": [
    {"assay": "qHTS Primary assay for Inhibitors of Plasmodium falciparum Dd2 growth in vitro; note: nearly all actives have a fitted effect of over 65% in size;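 for activity, negative = inhibition: plate controls were DMSO vehicle for no effect and reference drug for full effect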", "conditions": "P. falciparum Dd2 growth, SYBR Green, 72 h; activity, negative = inhibition: at 28.9 µM (top of the series) unless noted; series mostly up to 28.9 µM", "method_in_brief": "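Infected erythrocytes (Dd2, 0.3% parasitemia, 2.5% hematocrit final) are added to compound in RPMI-1640/Albumax II medium, grown 72 h at 37C in low oxygen, then lysed with saponin/Triton-X containing SYBR Green and read by fluorescence.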", "values": [
      {"smiles": "CCCNC(=O)N[C@@H]1CCC[C@@H](C(=O)NCc2ccc(OC)cc2)CC(=O)N(C)C1", "Potency": "inactive"},
      {"smiles": "Cc1ccsc1C(=O)NCC1Cn2cccc2C(=O)N1Cc1ccccc1", "note": "(stereo unspecified)", "Potency": "inconclusive: 12.6 µM [inhibitor, partial curve]"},
      {"smiles": "COc1ccc2[nH]c3c(c2c1)CCNC31CCN(C(=O)c2cccnc2C)CC1", "Potency": "inconclusive: 3.98 µM [inhibitor, single point]"},
      {"smiles": "CC(C)NC(=O)N1CCN(S(=O)(=O)c2ccccc2)[C@@H](C(=O)N[C@H](Cc2c[nH]c3ccccc23)C(N)=O)C1", "Potency": "inconclusive: 1.41 µM [inhibitor, full curve, poor fit]"},
      {"smiles": "CCOC(=O)C1=C(CS(=O)(=O)c2ccc(Br)cc2)NC(=O)NC1c1ccccc1", "note": "(stereo unspecified)", "Potency": "inactive"},
      {"smiles": "CNC(=O)N1CCC(C2CCN(C(=O)C3(C)CCCCC3)C2)CC1", "note": "(stereo unspecified)", "Potency": "inactive"},
      {"smiles": "COCCN1CCC(CN(Cc2ccncc2)C(=O)C2CC23CCCC3)CC1", "note": "(stereo unspecified)", "Potency": "inconclusive: 11.2 µM [inhibitor, partial curve, poor fit]"},
      {"smiles": "Cc1ccccc1CNC(=O)c1ccc(-c2nc(CS(=O)(=O)c3ccccc3)c(C)o2)cc1", "Potency": "inconclusive: 17.8 µM [inhibitor, single point]"},
      {"smiles": "COc1cccc(CNC(=O)N2CCCC3(C2)Nc2cccnc2NC3=NC2CCCC2)c1", "note": "(stereo unspecified)", "Potency": "inconclusive: 2.24 µM [inhibitor, partial curve, poor fit]"},
      {"smiles": "CCC(C)NC(=O)c1ccc(-n2c(-c3ccccc3)cc3c2CCCC3)cc1", "note": "(stereo unspecified)", "Potency": "inconclusive: 6.31 µM [inhibitor, partial curve, poor fit]"},
      {"smiles": "CCOc1ccc(CC(=O)N2C[C@@H](CO)[C@H](c3nc(C)no3)C2)cc1", "Potency": "inactive"},
      {"smiles": "Cn1c(=O)oc2cc(S(=O)(=O)N3CCCC(C(=O)Nc4ccc(Br)cc4F)C3)ccc21", "note": "(stereo unspecified)", "Potency": "inconclusive: 17.8 µM [inhibitor, single point]"},
      {"smiles": "COc1ccc(-c2ccc3nc(-c4cc(F)ccc4F)oc3c2)c(OC)c1OC", "Potency": "inactive"},
      {"smiles": "CC(=O)c1cc(C(=O)N2CCC3(CC2)Nc2ccccc2NC3=O)[nH]n1", "Potency": "inactive"},
      {"smiles": "COc1ccc(-c2nn3c(=O)cc(CN4CCN(C(=O)COc5ccc(F)cc5)CC4)nc3s2)cc1", "Potency": "inactive"},
      {"smiles": "COc1cccc(N2C(=O)NC(=NC3CCCCC3)C23CCN(Cc2cccn2C)C3)c1", "note": "(stereo unspecified)", "Potency": "inconclusive: 17.8 µM [inhibitor, single point]"},
      {"smiles": "Cc1ccccc1Cc1nc(-c2nnn3c2COC(c2ccc(Cl)cc2)C3)no1", "note": "(stereo unspecified)", "Potency": "inconclusive: 12.6 µM [inhibitor, single point]"},
      {"smiles": "Cc1ccc(CN(C(=O)c2ccco2)c2ccc(CC(=O)N3CCCC3)cc2)cc1", "Potency": "inactive"},
      {"smiles": "Clc1ccc(-c2cnc([C@@H]3COCCN3Cc3ccccn3)[nH]2)cc1", "Potency": "inconclusive: 5.01 µM [inhibitor, full curve]"},
      {"smiles": "C=CCCC(CN1CCOCC1)Oc1nccc(N(C)CC)n1", "note": "(stereo unspecified)", "Potency": "inconclusive: 12.6 µM [inhibitor, single point]"},
      {"smiles": "CN(C)C(=O)C1CN(C(=O)c2ccccc2Br)CC12CCOCC2", "note": "(stereo unspecified)", "Potency": "inactive"},
      {"smiles": "CC(C)C[C@H](CO)NC(=O)C[C@@H]1c2nc(NC(=O)c3c(F)cccc3F)sc2C[C@@H]2[C@](C)(CO)[C@H](O)CC[C@]21C", "Potency": "inconclusive: 12.6 µM [inhibitor, partial curve, poor fit]"},
      {"smiles": "CN(C(=O)c1cccc(Cl)c1)C1CCCc2ccccc21", "note": "(stereo unspecified)", "Potency": "inconclusive: 25.1 µM [inhibitor, single point]"},
      {"smiles": "CCCC(=O)N1Cc2ccccc2CC2(CCCCN2Cc2ccncc2)C1", "note": "(stereo unspecified)", "Potency": "active: 8.91 µM"},
      {"smiles": "Cc1c(CC(=O)NC2CCOCC2)c2c(n1Cc1ccccc1F)CCCC2=O", "Potency": "inconclusive: 10 µM [inhibitor, single point]"},
      {"smiles": "Cc1ccc(C)c(Cn2nnc(C(=O)NCc3ccc(Cl)cc3Cl)c2N)c1", "Potency": "active: 4.47 µM"},
      {"smiles": "COc1ccc(C2NC(=O)N(Cc3nc(C4CCCCC4)no3)C3=C2C(=O)OC3)cc1", "note": "(stereo unspecified)", "Potency": "inconclusive: 20 µM [inhibitor, single point]"},
      {"smiles": "CCCC(C)C(=O)N1CCn2nc(C(=O)Nc3ccccc3)cc2C1", "note": "(stereo unspecified)", "Potency": "inactive"},
      {"smiles": "CCC(=O)Nc1cccc(C2OC(=O)N(Cc3ccc(C)cc3)C2C(=O)NCCOC)c1", "note": "(stereo unspecified)", "Potency": "inactive"},
      {"smiles": "COc1ccc(N(CC(=O)NCc2ccc(F)cc2)S(=O)(=O)c2c(C)n[nH]c2C)cc1", "Potency": "inactive"},
      {"smiles": "Cc1ccccc1CN1Cc2nc(Nc3ccccc3)ccc2OCC1=O", "Potency": "inconclusive: 31.6 µM [inhibitor, single point]"},
      {"smiles": "CN1c2cc(C(=O)NCc3nc4ccccc4n3C)ccc2C(=O)N2CCCCCC21", "note": "(stereo unspecified)", "Potency": "inconclusive: 0.398 µM [inhibitor, full curve, poor fit]"},
      {"smiles": "COc1cc(NC(=O)CCc2c(C)nc3nc(-c4cc(OC)cc(OC)c4)nn3c2C)cc(OC)c1", "Potency": "inconclusive: 1 µM [inhibitor, partial curve, poor fit]"},
      {"smiles": "CCCCN(CC)CCNC(=O)c1cc2c(-c3ccc(Cl)cc3)nn(C)c2s1", "Potency": "inconclusive: 0.316 µM [inhibitor, full curve, poor fit]"},
      {"smiles": "COc1cc(Cl)ccc1OCc1nc2c(n1Cc1ccccc1)C(=O)N(CC1CCOCC1)CCN2", "Potency": "inactive"},
      {"smiles": "Cc1ccc(-c2nc(Cn3c(-c4ccccc4)nc(C)c(CCO)c3=O)c(C)o2)cc1", "Potency": "inconclusive: 12.6 µM [inhibitor, single point]"},
      {"smiles": "O=C(Cc1ccc(OC(F)(F)F)cc1)N1CC2CC(C1)[C@H]1CCCC(=O)N1C2", "note": "(stereo partly specified)", "Potency": "inactive"},
      {"smiles": "Cc1ccc(S(=O)(=O)c2nc(-c3ccco3)oc2SC(C)c2ccccc2)cc1", "note": "(stereo unspecified)", "Potency": "inconclusive: 14.1 µM [inhibitor, partial curve, poor fit]"},
      {"smiles": "COc1cccc(CNC(=O)c2ccc(Cn3c(SCc4ccccc4)nc4cccnc43)cc2)c1", "Potency": "active: 10 µM"},
      {"smiles": "COc1cc(Cl)ccc1Nc1ncc(C(=O)N2CCN(c3ccccc3OC)CC2)c2ccccc12", "Potency": "inconclusive: 11.2 µM [inhibitor, partial curve]"},
      {"smiles": "CCc1ccccc1CN1CCCC2(Cc3ccccc3CNC2=O)C1", "note": "(stereo unspecified)", "Potency": "inconclusive: 3.98 µM [inhibitor, partial curve, poor fit]"},
      {"smiles": "Cc1ccc(C(=O)N2CCC(c3c[nH]c4ccccc34)(c3c[nH]c4ccccc34)CC2)cc1", "Potency": "active: 2 µM"},
      {"smiles": "CCN1C(=O)Cc2cc(C(=O)NCc3ccc4c(c3)OCO4)ccc21", "Potency": "inactive"},
      {"smiles": "Cc1ccc(S(=O)(=O)N2CCn3c(nn(CC4CC4)c3=O)C2)c(C)c1", "Potency": "inactive"},
      {"smiles": "COc1ccccc1Oc1c(CCC(=O)NCc2ccccc2)c(C)nn1-c1ccc(F)cc1", "Potency": "inconclusive: 3.16 µM [inhibitor, single point]"},
      {"smiles": "COc1ccc(N2CC3CCC(C2)N3Cc2ccc(-c3cccnc3)cc2)cc1", "activity, negative = inhibition": "inconclusive: -80.1% [inhibitor]"},
      {"smiles": "O=C(CCCn1cnnn1)NC1CCCc2c1cnn2-c1ccccn1", "note": "(stereo unspecified)", "Potency": "inactive"},
      {"smiles": "O=C(Nc1ccc2c(c1)OCO2)C1CCCN(c2cnn(Cc3ccccc3)c(=O)c2)C1", "note": "(stereo unspecified)", "Potency": "active: 10 µM"},
      {"smiles": "N#Cc1ccc(CN2CCC(N3CCCOC3=O)CC2)cc1", "Potency": "inactive"},
      {"smiles": "CNC(=O)CCn1ncc2cc(OCc3ccccc3-c3ccc(F)c(Cl)c3)ccc21", "Potency": "inconclusive: 3.55 µM [inhibitor, single point]"},
      {"smiles": "CCOC(=O)c1ccc(NC(=O)C(CC)Sc2nc3ncccc3[nH]2)cc1", "note": "(stereo unspecified)", "Potency": "inconclusive: 10 µM [inhibitor, single point]"},
      {"smiles": "Cc1ccc(-n2nc(C)c([C@@H]3C=C[C@@H](NCc4cccc(C#N)c4)C3)c2C)cc1Cl", "Potency": "inconclusive: 2.24 µM [inhibitor, partial curve, poor fit]"},
      {"smiles": "Cc1ccc(C(=O)N2CCn3c(nnc3-c3ccc(Cl)cc3)C2)cc1", "activity, negative = inhibition": "inconclusive: -47% [inhibitor]"},
      {"smiles": "Cc1ccc(NC(=O)N2CCc3c(C(=O)NCCc4ccccn4)cccc32)cc1", "Potency": "inactive"},
      {"smiles": "COCCN1C(=O)c2ccccc2C(C(=O)Nc2nnc(C(C)C)s2)C12CCCCC2", "note": "(stereo unspecified)", "Potency": "active: 11.2 µM"},
      {"smiles": "Cc1ccc(CNC(=O)N2CCC3(CC2)CC(C(=O)N2CCOCC2)N(C)C3)cc1", "note": "(stereo unspecified)", "Potency": "inconclusive: 20 µM [inhibitor, single point]"},
      {"smiles": "CCCc1noc(-c2cn(C3CCN(C(=O)c4ccc(N(C)C)cc4)CC3)nn2)n1", "Potency": "inconclusive: 3.55 µM [inhibitor, single point]"},
      {"smiles": "Cc1ccc(-n2c3nc(=O)n(C)c(=O)c-3cc3c(Cl)cccc32)c(C)c1", "Potency": "inconclusive: 4.47 µM [inhibitor, partial curve]"},
      {"smiles": "CN1C(=O)Cc2cc(C(=O)NC3CCN(Cc4ccccc4)CC3)ccc21", "Potency": "inconclusive: 0.891 µM [inhibitor, full curve, poor fit]"},
      {"smiles": "CC1CCCN(S(=O)(=O)c2ccc(NC(=O)c3nc(SC(C)C)ncc3Cl)cc2)C1", "note": "(stereo unspecified)", "Potency": "inconclusive: 17.8 µM [inhibitor, single point]"},
      {"smiles": "COc1ccc(C2(C(=O)NCC(=O)N3CCCCCNC(=O)CC3c3ccccc3)CC2)cc1", "note": "(stereo unspecified)", "Potency": "inactive"},
      {"smiles": "COCCN1C(=O)c2[nH]nc(-c3ccccc3O)c2C1c1ccc(OCc2ccccc2)c(OC)c1", "note": "(stereo unspecified)", "Potency": "inconclusive: 12.6 µM [inhibitor, partial curve, poor fit]"},
      {"smiles": "COC(=O)c1c(-c2cccs2)csc1NC(=O)c1ccc(Cl)cc1", "Potency": "inconclusive: 8.91 µM [inhibitor, partial curve, poor fit]"},
      {"smiles": "Cc1ncsc1CN1CC[C@@H]2C(=O)NCCCCCCN(Cc3ccncc3)[C@@H]2C1", "Potency": "inconclusive: 20 µM [inhibitor, partial curve, poor fit]"},
      {"smiles": "NC(=O)[C@@H](Cc1c[nH]c2ccccc12)NC(=O)C1=C[C@@H](NS(=O)(=O)c2cccs2)[C@@H](O)[C@H](O)C1", "Potency": "inactive"},
      {"smiles": "O=C(Nc1cc(Cl)cc(Cl)c1)c1ccc(F)c(S(=O)(=O)NC2CCCC2)c1", "Potency": "inconclusive: 15.8 µM [inhibitor, single point]"}
    ]}
  ]
}
